# The whole screen tested about 39,000 compounds, of which about 220 (0.56%) showed activity. The list shows a part of the results.
# Tested on: Escherichia coli K-12 BW25113
# Assay: relative growth (OD600 normalised to plate interquartile mean) (fraction); higher = less growth inhibition, active = 0.2 or less
# Conditions: 50 µM; LB; incubation time: overnight (16-24 h)
# 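Also: static incubation at 37 °C against the wild-type strain, values averaged over two biological replicates.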
row,Structure (SMILES),relative growth
1,COCC#Cc1cnc2c(c1)C(=O)N([C@@H](C)CO)C[C@H](C)[C@H](CN(C)S(=O)(=O)c1cccc(OC)c1)O2,inactive: 0.998
2,Cc1c[nH]c2ccccc12,inactive: 0.939
3,O=C([C@H]1CCCO1)N1CCNCC1,inactive: 1.04
4,COc1cccc(S(=O)(=O)N[C@@H]2CC[C@@H](CCn3cc(-c4ccccc4OC)nn3)O[C@@H]2CO)c1,inactive: 0.985
5,COCCN[C@H]1CS(=O)(=O)C[C@@H]1O,inactive: 0.988
6,CC(C)NC(=O)N(C)C[C@@H]1OCCCC[C@@H](C)Oc2ccc(NC(=O)Nc3ccc(F)cc3)cc2C(=O)N([C@H](C)CO)C[C@H]1C,inactive: 0.987
7,C[C@@H]1CCCCO[C@H](CN(C)C(=O)CCC(F)(F)F)[C@H](C)CN([C@H](C)CO)C(=O)c2cc(NC(=O)NC3CCCCC3)ccc2O1,inactive: 0.989
8,CC(=O)NS(=O)(=O)c1ccc(NC(=O)c2ccccc2C(=O)O)cc1,inactive: 0.877
9,C[C@@H]1CN([C@@H](C)CO)C(=O)Cc2cc(NC(=O)Nc3ccc(F)cc3)ccc2O[C@@H]1CN(C)Cc1ccc(C(=O)Nc2ccccc2N)cc1,inactive: 1.01
10,C[C@@H]1CN([C@H](C)CO)C(=O)c2cc(NC(=O)Cc3cn(C)c4ccccc34)ccc2O[C@H]1CN(C)C(=O)Nc1cccc2ccccc12,inactive: 1.04
11,Cc1ccc(S(=O)(=O)Nc2ccc3c(c2)C(=O)N([C@H](C)CO)C[C@H](C)[C@H](CN(C)S(C)(=O)=O)OCCCC[C@H](C)O3)cc1,inactive: 1
12,C[C@H](CO)N1C[C@H](C)[C@H](CN(C)Cc2ccc(Cl)c(Cl)c2)Oc2c(NS(=O)(=O)c3ccc(F)cc3)cccc2C1=O,inactive: 1.04
13,O=c1cc(-c2ccc(O)cc2)oc2ccc(O)cc12,inactive: 1.01
14,C[C@@H]1CN([C@@H](C)CO)C(=O)c2cccc(NS(C)(=O)=O)c2O[C@@H]1CN(C)S(=O)(=O)c1cn(C)cn1,inactive: 0.997
15,C[C@H]1CN([C@@H](C)CO)C(=O)Cc2cc(NC(=O)Cn3cnnn3)ccc2O[C@@H]1CN(C)C(=O)Nc1ccccc1,inactive: 1
16,COc1ccc(S(=O)(=O)N(C)C[C@@H]2Oc3ccc(NS(C)(=O)=O)cc3CC(=O)N([C@H](C)CO)C[C@@H]2C)cc1,inactive: 0.987
17,COc1ccc(S(=O)(=O)N[C@H]2CC[C@H](CC(=O)N3CCC(Cc4ccccc4)CC3)O[C@H]2CO)cc1,inactive: 0.996
18,C[C@@H]1CCCCO[C@@H](CN(C)Cc2ccc(C(F)(F)F)cc2)[C@H](C)CN([C@H](C)CO)C(=O)c2cc(NC(=O)Nc3ccc4c(c3)OCO4)ccc2O1,inactive: 1.05
19,C[C@@H]1CCCCO[C@H](CN(C)Cc2ccc(C(F)(F)F)cc2)[C@@H](C)CN([C@H](C)CO)C(=O)c2cc(N(C)C)ccc2O1,inactive: 0.944
20,C[C@H](CO)N1C[C@H](C)[C@H](CN(C)S(C)(=O)=O)Oc2ccc(NS(C)(=O)=O)cc2CC1=O,inactive: 0.982

row,Structure (SMILES),relative growth
1,C[C@H]1CN([C@@H](C)CO)C(=O)Cc2cc(NC(=O)CCCCCC(=O)Nc3ccccc3N)ccc2O[C@@H]1CN(C)C(=O)Nc1ccc(C(F)(F)F)cc1,inactive: 1.01
2,COc1cccc(S(=O)(=O)N(C)C[C@@H]2Oc3cc(C4=CCCC4)ccc3S(=O)(=O)N([C@H](C)CO)C[C@@H]2C)c1,inactive: 1.03
3,CO[C@H]1CN(C)C(=O)c2cc(NS(C)(=O)=O)ccc2OC[C@@H](C)N(C(=O)C2CCOCC2)C[C@H]1C,inactive: 1
4,CC(=O)N(C)C[C@H]1Oc2ncc(C#C[C@H](C)O)cc2C(=O)N([C@@H](C)CO)C[C@H]1C,inactive: 1.04
5,C[C@H](CO)N1C[C@H](C)[C@H](CN(C)C(=O)C2CCCCC2)Oc2cc(-c3cncnc3)ccc2S1(=O)=O,inactive: 1.03
6,C=CC[C@@H](CC(=O)N[C@@H](CO)Cc1ccccc1)C(=O)N[C@@H](C)COC(=O)[C@@H](CC=C)CC(=O)OC(C)(C)C,inactive: 0.993
7,C[C@@H]1CN([C@H](C)CO)C(=O)c2cccc(NS(=O)(=O)c3ccc(F)cc3)c2O[C@@H]1CN(C)CC1CC1,inactive: 1
8,COc1ccccc1C(=O)Nc1ccc2c(c1)C(=O)N(C)[C@@H]1CC[C@@H](CC(=O)NCc3ccc(Cl)c(Cl)c3)O[C@@H]1CO2,inactive: 1.05
9,C[C@H](CO)N1C[C@H](C)[C@H](CN(C)C(=O)NC2CCCCC2)OCCCC[C@H](C)Oc2ccc(NC(=O)CCC(F)(F)F)cc2C1=O,inactive: 0.98
10,Cc1ccc(S(=O)(=O)N2C[C@@H](O)COC[C@@H]3O[C@@H](CC(=O)N[C@H]4CCN(Cc5ccccc5)C4)CC[C@H]32)cc1,inactive: 0.963
11,COC[C@H]1CNN1C(=O)C1CCCC1,inactive: 0.986
12,COc1ccccc1S(=O)(=O)N(C)C[C@@H]1OCc2cnnn2CCCC(=O)N([C@@H](C)CO)C[C@H]1C,inactive: 0.981
13,COc1ccc(CN(C)C[C@@H]2OCCCC[C@@H](C)Oc3ccc(NS(=O)(=O)c4c(C)noc4C)cc3C(=O)N([C@H](C)CO)C[C@@H]2C)cc1,inactive: 0.875
14,C[C@H]1CN([C@@H](C)CO)C(=O)c2cccc(NC(=O)Nc3cccc4ccccc34)c2O[C@@H]1CN(C)C(=O)Nc1cccc2ccccc12,inactive: 1.01
15,CN(C)c1nc2cc(Cl)ccc2o1,inactive: 0.978
16,COc1ccc(S(=O)(=O)N(C)C[C@H]2Oc3cc(C4=CCCC4)ccc3S(=O)(=O)N([C@H](C)CO)C[C@@H]2C)cc1,inactive: 0.975
17,CC(C)(C)[S@@](=O)N1Cc2cc(C(=O)NCc3ccccn3)nc(-c3cccc(-c4ccccc4F)c3)c2[C@H]1CCO,inactive: 1.01
18,COc1ccc(S(=O)(=O)N(C)C[C@@H]2Oc3ccc(NC(=O)Cc4ccccc4)cc3CC(=O)N([C@@H](C)CO)C[C@H]2C)cc1,inactive: 0.978
19,Cc1noc(C)c1NC(=O)Nc1cccc2c1O[C@H](CN(C)C(=O)Nc1cccc3ccccc13)[C@@H](C)CN([C@H](C)CO)C2=O,inactive: 0.969
20,C[C@H]1CN([C@@H](C)CO)C(=O)c2cccc(NS(=O)(=O)c3cccs3)c2O[C@@H]1CN(C)CC1CC1,inactive: 0.991

row,Structure (SMILES),relative growth
1,C[C@H](CO)N1C[C@H](C)[C@H](CN(C)S(=O)(=O)c2cccc(F)c2)Oc2ncc(C#CC(C)(C)O)cc2C1=O,inactive: 1.01
2,CN1CCN(C(=O)C[C@@H]2C[C@H]3c4cc(NC(=O)c5ccc6c(c5)OCO6)ccc4O[C@H]3[C@@H](CO)O2)CC1,inactive: 0.981
3,COc1ccc(S(=O)(=O)Nc2ccc3c(c2)CC(=O)N([C@H](C)CO)C[C@@H](C)[C@H](CN(C)S(=O)(=O)c2c(C)noc2C)O3)cc1,inactive: 1.02
4,Cc1ccc(S(=O)(=O)Nc2ccc3c(c2)C(=O)N([C@H](C)CO)C[C@@H](C)[C@@H](CN(C)C(=O)Nc2ccccc2)OCCCC[C@@H](C)O3)cc1,inactive: 1.01
5,CS(=O)(=O)N[C@@H](C(=O)O)c1ccccc1,inactive: 1.06
6,COc1ccc(NC(=O)Nc2ccc3c(c2)C(=O)N([C@H](C)CO)C[C@H](C)[C@H](CN(C)C(=O)Nc2ccc(C(F)(F)F)cc2)O3)cc1,inactive: 0.985
7,C[C@@H]1CN([C@@H](C)CO)C(=O)Cc2cc(NC(=O)Cn3cnnn3)ccc2O[C@@H]1CN(C)Cc1ccccc1,inactive: 1.02
8,C/C=C/c1ccc2c(c1)O[C@H](CN(C)S(=O)(=O)c1ccccc1)[C@@H](C)CN([C@H](C)CO)S2(=O)=O,inactive: 0.985
9,C[C@H](CO)N1C[C@H](C)[C@H](CN(C)C(=O)CCCN(C)C)OCCCC[C@H](C)Oc2ccc(NC(=O)Nc3ccc(F)cc3)cc2C1=O,inactive: 0.989
10,C[C@@H]1CCCCO[C@@H](CN(C)Cc2ccc(Cl)c(Cl)c2)[C@H](C)CN([C@@H](C)CO)C(=O)c2cc(NS(=O)(=O)c3cn(C)cn3)ccc2O1,inactive: 0.975
11,C[C@H](CO)N1C[C@H](C)[C@H](CN(C)Cc2ccc(C(=O)Nc3ccccc3N)cc2)OCCCC[C@H](C)Oc2ccc(N(C)C)cc2C1=O,inactive: 0.982
12,CCCCN1CC=C[C@@]23O[C@@H]4C=CCCOC(=O)[C@@H]4[C@H]2C(=O)N([C@@H](C)CO)[C@@H]3C1=O,inactive: 1.03
13,C[C@@H]1CN([C@H](C)CO)C(=O)c2cc(NC(=O)Cc3cn(C)c4ccccc34)ccc2O[C@H]1CN(C)S(=O)(=O)c1cn(C)cn1,inactive: 0.991
14,Cc1noc(C)c1S(=O)(=O)Nc1ccc2c(c1)C(=O)N([C@H](C)CO)C[C@@H](C)[C@H](CN(C)S(=O)(=O)c1ccccc1)O2,inactive: 1
15,C[C@@H](NS(=O)(=O)C1CN(C(=O)OCc2ccccc2)C1)C(N)=O,inactive: 1.02
16,C[C@H]1CN([C@@H](C)CO)C(=O)Cc2cc(NC(=O)Nc3ccccc3)ccc2O[C@@H]1CN(C)C(=O)Nc1ccc(C(F)(F)F)cc1,inactive: 0.998
17,COc1ccc(S(=O)(=O)N(C)C[C@@H]2OCCCC[C@@H](C)Oc3ccc(NC(=O)Nc4ccccc4)cc3C(=O)N([C@H](C)CO)C[C@H]2C)cc1,inactive: 1.02
18,C[C@@H]1CCCCO[C@H](CN(C)S(=O)(=O)c2cccs2)[C@@H](C)CN([C@@H](C)CO)C(=O)c2cc(NC(=O)Nc3ccc4c(c3)OCO4)ccc2O1,inactive: 0.963
19,C[C@H](CO)N1C[C@H](C)[C@H](CN(C)Cc2ccc(C(=O)Nc3ccccc3N)cc2)Oc2ccc(NS(=O)(=O)c3ccc(Cl)cc3)cc2C1=O,inactive: 0.984

# Source: the supplement of paper PMC9446081
